# Measurements from publication PMC12820563, “FoxP3 forms a head-to-head dimer in vivo and stabilizes its multimerization on adjacent microsatellites”.
# This is one part of the list.
# Molecular target: T1, MBP-FoxP1dN (Mus musculus, UniProt P58462 326-579)
# T1 sequence: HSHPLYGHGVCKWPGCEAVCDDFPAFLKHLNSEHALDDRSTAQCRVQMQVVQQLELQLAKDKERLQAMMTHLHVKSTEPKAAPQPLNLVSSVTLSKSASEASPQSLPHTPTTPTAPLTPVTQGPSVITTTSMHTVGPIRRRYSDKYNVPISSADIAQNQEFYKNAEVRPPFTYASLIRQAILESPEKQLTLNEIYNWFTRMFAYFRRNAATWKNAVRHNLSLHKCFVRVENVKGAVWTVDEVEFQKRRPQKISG
# Assay: PD-seq (MBP pull-down with sequencing); 20 mM Tris-HCl pH 7.5, 100 mM NaCl, 1.5 mM MgCl2, 0.4 uM protein, 0.1 uM dsDNA library, 30 min, room temperature, amylose pull-down; high values mean tight binding
# Conditions: protein: recombinant; tags: His6-MBP; chain copies: 2; dsDNA, one strand shown
# Outline: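 A degenerate double-stranded DNA library, filled in with Klenow, was added at 0.1 µM to 0.4 µM His6-MBP-tagged mouse FoxP3 or FoxP1 fragment lacking the N-terminus, expressed in E. coli. Incubation lasted 30 min at room temperature in Tris pH 7.5 buffer with NaCl and MgCl2, after which complexes were collected on amylose resin, washed three times, digested with proteinase K to free the DNA, barcoded by PCR and sequenced by Illumina. Binding is the pooled-replicate reads-per-million enrichment of pull-down over input.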
row,Sequence,binding signal
1,GATGATTGTTCTCCCAGCTGATGAATTCTAGGCCTCGAGTAAACAAATTTTCCTAATCTTTCTGTTCAAGCGCCATCTAC,0.874 RPM ratio (pull-down/input)
2,GATGATTGTTCTCCCAGCTGATGAATTTTGCAACTCGAGTAAACAAATTTTCCTAATCTTTCTGTTCAAGCGCCATCTAC,1.27 RPM ratio (pull-down/input)
3,GATGATTGTTCTCCCAGCTGATGAATTTGGATTCTCGAGTAAACAAATTTTCCTAATCTTTCTGTTCAAGCGCCATCTAC,0.91 RPM ratio (pull-down/input)
4,GATGATTGTTCTCCCAGCTGATGAATTACCCAACTCGAGTAAACAAATTTTCCTAATCTTTCTGTTCAAGCGCCATCTAC,0.944 RPM ratio (pull-down/input)
5,GATGATTGTTCTCCCAGCTGATGAATTAGAGAATTCGAGTAAACAAATTTTCCTAATCTTTCTGTTCAAGCGCCATCTAC,0.899 RPM ratio (pull-down/input)
6,GATGATTGTTCTCCCAGCTGATGAATTTTAACCGTCGAGTAAACAAATTTTCCTAATCTTTCTGTTCAAGCGCCATCTAC,0.848 RPM ratio (pull-down/input)
7,GATGATTGTTCTCCCAGCTGATGAATTCGCTATTTCGAGTAAACAAATTTTCCTAATCTTTCTGTTCAAGCGCCATCTAC,0.918 RPM ratio (pull-down/input)
8,GATGATTGTTCTCCCAGCTGATGAATTGCGAATCTCGAGTAAACAAATTTTCCTAATCTTTCTGTTCAAGCGCCATCTAC,1.03 RPM ratio (pull-down/input)
9,GATGATTGTTCTCCCAGCTGATGAATTCCGGGTTTCGAGTAAACAAATTTTCCTAATCTTTCTGTTCAAGCGCCATCTAC,0.86 RPM ratio (pull-down/input)
10,GATGATTGTTCTCCCAGCTGATGAATTAGTAAAATCGAGTAAACAAATTTTCCTAATCTTTCTGTTCAAGCGCCATCTAC,1.05 RPM ratio (pull-down/input)
11,GATGATTGTTCTCCCAGCTGATGAATTGTGTGTATCGAGTAAACAAATTTTCCTAATCTTTCTGTTCAAGCGCCATCTAC,1.92 RPM ratio (pull-down/input)
12,GATGATTGTTCTCCCAGCTGATGAATTCCGAAGCTCGAGTAAACAAATTTTCCTAATCTTTCTGTTCAAGCGCCATCTAC,0.729 RPM ratio (pull-down/input)
13,GATGATTGTTCTCCCAGCTGATGAATTATTACGTTCGAGTAAACAAATTTTCCTAATCTTTCTGTTCAAGCGCCATCTAC,1.21 RPM ratio (pull-down/input)
14,GATGATTGTTCTCCCAGCTGATGAATTGGCGGCGTCGAGTAAACAAATTTTCCTAATCTTTCTGTTCAAGCGCCATCTAC,0.896 RPM ratio (pull-down/input)
15,GATGATTGTTCTCCCAGCTGATGAATTCGACACCTCGAGTAAACAAATTTTCCTAATCTTTCTGTTCAAGCGCCATCTAC,0.804 RPM ratio (pull-down/input)
16,GATGATTGTTCTCCCAGCTGATGAATTCTCTTACTCGAGTAAACAAATTTTCCTAATCTTTCTGTTCAAGCGCCATCTAC,0.854 RPM ratio (pull-down/input)
17,GATGATTGTTCTCCCAGCTGATGAATTCAAGGTGTCGAGTAAACAAATTTTCCTAATCTTTCTGTTCAAGCGCCATCTAC,0.904 RPM ratio (pull-down/input)
18,GATGATTGTTCTCCCAGCTGATGAATTGCCAAGATCGAGTAAACAAATTTTCCTAATCTTTCTGTTCAAGCGCCATCTAC,1.02 RPM ratio (pull-down/input)
19,GATGATTGTTCTCCCAGCTGATGAATTCAGATTTTCGAGTAAACAAATTTTCCTAATCTTTCTGTTCAAGCGCCATCTAC,0.908 RPM ratio (pull-down/input)
20,GATGATTGTTCTCCCAGCTGATGAATTGTTGTAATCGAGTAAACAAATTTTCCTAATCTTTCTGTTCAAGCGCCATCTAC,1.96 RPM ratio (pull-down/input)

row,Sequence,binding signal
1,GATGATTGTTCTCCCAGCTGATGAATTAAACAGTTCGAGTAAACAAATTTTCCTAATCTTTCTGTTCAAGCGCCATCTAC,1.24 RPM ratio (pull-down/input)
2,GATGATTGTTCTCCCAGCTGATGAATTGTCAGAGTCGAGTAAACAAATTTTCCTAATCTTTCTGTTCAAGCGCCATCTAC,0.866 RPM ratio (pull-down/input)
3,GATGATTGTTCTCCCAGCTGATGAATTATCTCTATCGAGTAAACAAATTTTCCTAATCTTTCTGTTCAAGCGCCATCTAC,1.04 RPM ratio (pull-down/input)
4,GATGATTGTTCTCCCAGCTGATGAATTAGCAGGATCGAGTAAACAAATTTTCCTAATCTTTCTGTTCAAGCGCCATCTAC,0.814 RPM ratio (pull-down/input)
5,GATGATTGTTCTCCCAGCTGATGAATTGATATTTTCGAGTAAACAAATTTTCCTAATCTTTCTGTTCAAGCGCCATCTAC,2.4 RPM ratio (pull-down/input)
6,GATGATTGTTCTCCCAGCTGATGAATTCTGTTGCTCGAGTAAACAAATTTTCCTAATCTTTCTGTTCAAGCGCCATCTAC,1.25 RPM ratio (pull-down/input)
7,GATGATTGTTCTCCCAGCTGATGAATTGCGCTTGTCGAGTAAACAAATTTTCCTAATCTTTCTGTTCAAGCGCCATCTAC,1.18 RPM ratio (pull-down/input)
8,GATGATTGTTCTCCCAGCTGATGAATTCCGGTTGTCGAGTAAACAAATTTTCCTAATCTTTCTGTTCAAGCGCCATCTAC,1.05 RPM ratio (pull-down/input)
9,GATGATTGTTCTCCCAGCTGATGAATTGGACCTCTCGAGTAAACAAATTTTCCTAATCTTTCTGTTCAAGCGCCATCTAC,0.763 RPM ratio (pull-down/input)
10,GATGATTGTTCTCCCAGCTGATGAATTAAAACGGTCGAGTAAACAAATTTTCCTAATCTTTCTGTTCAAGCGCCATCTAC,0.869 RPM ratio (pull-down/input)
11,GATGATTGTTCTCCCAGCTGATGAATTTCCGGAATCGAGTAAACAAATTTTCCTAATCTTTCTGTTCAAGCGCCATCTAC,0.872 RPM ratio (pull-down/input)
12,GATGATTGTTCTCCCAGCTGATGAATTAATCTGTTCGAGTAAACAAATTTTCCTAATCTTTCTGTTCAAGCGCCATCTAC,0.867 RPM ratio (pull-down/input)
13,GATGATTGTTCTCCCAGCTGATGAATTGTCTGATTCGAGTAAACAAATTTTCCTAATCTTTCTGTTCAAGCGCCATCTAC,1 RPM ratio (pull-down/input)
14,GATGATTGTTCTCCCAGCTGATGAATTGTGTATATCGAGTAAACAAATTTTCCTAATCTTTCTGTTCAAGCGCCATCTAC,1.9 RPM ratio (pull-down/input)
15,GATGATTGTTCTCCCAGCTGATGAATTCTCCAGGTCGAGTAAACAAATTTTCCTAATCTTTCTGTTCAAGCGCCATCTAC,0.76 RPM ratio (pull-down/input)
16,GATGATTGTTCTCCCAGCTGATGAATTCTTGGAGTCGAGTAAACAAATTTTCCTAATCTTTCTGTTCAAGCGCCATCTAC,0.857 RPM ratio (pull-down/input)
17,GATGATTGTTCTCCCAGCTGATGAATTTTTACCCTCGAGTAAACAAATTTTCCTAATCTTTCTGTTCAAGCGCCATCTAC,0.917 RPM ratio (pull-down/input)
18,GATGATTGTTCTCCCAGCTGATGAATTTACGGATTCGAGTAAACAAATTTTCCTAATCTTTCTGTTCAAGCGCCATCTAC,1.24 RPM ratio (pull-down/input)
19,GATGATTGTTCTCCCAGCTGATGAATTCATTTGATCGAGTAAACAAATTTTCCTAATCTTTCTGTTCAAGCGCCATCTAC,0.905 RPM ratio (pull-down/input)
20,GATGATTGTTCTCCCAGCTGATGAATTTTGAAAATCGAGTAAACAAATTTTCCTAATCTTTCTGTTCAAGCGCCATCTAC,1.14 RPM ratio (pull-down/input)
